# This is one part of the list.
# Key:
# Test in all cases: glycan array binding signal (z-score within array); higher = stronger binding
# Settings in all cases: glycan notation: IUPAC condensed, linker removed
# [1] = target: Fuc(a1-2)Gal(b1-4)GlcNAc(b1-3)Gal(b1-4)GlcNAc
# Method in brief: (§1)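 Glycan array data came from 3228 arrays in the Consortium for Functional Glycomics database, and only arrays with an available protein sequence were kept. Glycan names were put into IUPAC-condensed notation, and columns mapping to the same glycan were averaged. The binding signal is a within-array Z-score, averaged across arrays of one protein sequence run at different concentrations or buffers and across linkers. A negative Z-score can be read as non-binding.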
# [2] = target: Fuc(a1-2)Gal(b1-4)GlcNAc(b1-3)Gal(b1-4)GlcNAc(b1-2)Man(a1-3)[Fuc(a1-2)Gal(b1-4)GlcNAc(b1-3)Gal(b1-4)GlcNAc(b1-2)Man(a1-6)]Man(b1-4)GlcNAc(b1-4)GlcNAc
# Method in brief: as §1
# [3] = target: Fuc(a1-2)Gal(b1-4)GlcNAc(b1-3)Gal(b1-4)GlcNAc(b1-3)Gal(b1-4)GlcNAc
# Method in brief: as §1
# [4] = target: Fuc(a1-2)Gal(b1-4)GlcNAc(b1-3)GalNAc
# Method in brief: as §1
# [5] = target: Fuc(a1-2)Gal(b1-4)GlcNAc(b1-3)[Fuc(a1-2)Gal(b1-4)GlcNAc(b1-6)]GalNAc
# Method in brief: as §1
# [6] = target: Fuc(a1-2)Gal(b1-4)GlcNAc(b1-3)[Fuc(a1-3)[Gal(b1-4)]GlcNAc(b1-6)]Gal(b1-4)Glc
# Method in brief: as §1
# [7] = target: Fuc(a1-2)Gal(b1-4)GlcNAc(b1-6)GalNAc
# Method in brief: as §1
# [8] = target: Fuc(a1-2)Gal(b1-4)GlcNAc6S
# Method in brief: as §1
# [9] = target: Fuc(a1-2)Gal(b1-4)[Fuc(a1-3)]GalNAc(b1-3)Gal(b1-4)[Fuc(a1-3)]GlcNAc
# Method in brief: as §1
# [10] = target: Fuc(a1-2)Gal(b1-4)[Fuc(a1-3)]GalNAc(b1-3)Gal(b1-4)[Fuc(a1-3)]GlcNAc(b1-3)Gal(b1-4)[Fuc(a1-3)]GalNAc
# Method in brief: as §1
# [11] = target: Fuc(a1-2)Gal(b1-4)[Fuc(a1-3)]GlcNAc
# Method in brief: as §1
# [12] = target: Fuc(a1-2)Gal(b1-4)[Fuc(a1-3)]GlcNAc(b1-2)Man(a1-3)[Fuc(a1-2)Gal(b1-4)[Fuc(a1-3)]GlcNAc(b1-2)Man(a1-6)]Man(b1-4)GlcNAc(b1-4)[Fuc(a1-6)]GlcNAc
# Method in brief: as §1
# [13] = target: Fuc(a1-2)Gal(b1-4)[Fuc(a1-3)]GlcNAc(b1-2)[Fuc(a1-2)Gal(b1-4)[Fuc(a1-3)]GlcNAc(b1-4)]Man(a1-3)[Fuc(a1-2)Gal(b1-4)[Fuc(a1-3)]GlcNAc(b1-2)Man(a1-6)]Man(b1-4)GlcNAc(b1-4)GlcNAc
# Method in brief: as §1
# [14] = target: Fuc(a1-2)Gal(b1-4)[Fuc(a1-3)]GlcNAc(b1-3)Gal(b1-4)[Fuc(a1-3)]GlcNAc
# Method in brief: as §1
# [15] = target: Fuc(a1-2)Gal(b1-4)[Fuc(a1-3)]GlcNAc(b1-3)Gal(b1-4)[Fuc(a1-3)]GlcNAc(b1-3)Gal(b1-4)[Fuc(a1-3)]GlcNAc
# Method in brief: as §1
# [16] = target: Fuc(a1-2)Gal(b1-4)[Fuc(a1-3)]GlcNAc(b1-3)GalNAc
# Method in brief: as §1
# [17] = target: Fuc(a1-2)Gal(b1-4)[Fuc(a1-3)]GlcNAc(b1-3)[Neu5Ac(a2-6)Gal(b1-4)GlcNAc(b1-6)]Gal(b1-4)Glc
# Method in brief: as §1
# [18] = target: Fuc(a1-2)Gal3S(b1-4)GlcNAc
# Method in brief: as §1
# [19] = target: Fuc(a1-2)Gal6S(b1-3)GlcNAc
# Method in brief: as §1
# [20] = target: Fuc(a1-2)Gal6S(b1-3)GlcNAc6S
# Method in brief: as §1
# Fuc(a1-2)Gal6S(b1-4)Glc = target: Fuc(a1-2)Gal6S(b1-4)Glc
# Method in brief: as §1
# [21] = target: Fuc(a1-2)Gal6S(b1-4)Glc6S
# Method in brief: as §1
# [22] = target: Fuc(a1-2)Gal6S(b1-4)GlcNAc
# Method in brief: as §1
# Fuc(a1-2)GlcNAc = target: Fuc(a1-2)GlcNAc
# Method in brief: as §1
# Fuc(a1-2)[Gal(a1-3)]Gal = target: Fuc(a1-2)[Gal(a1-3)]Gal
# Method in brief: as §1
# [23] = target: Fuc(a1-2)[Gal(a1-3)]Gal(b1-3)GalNAc
# Method in brief: as §1
# [24] = target: Fuc(a1-2)[Gal(a1-3)]Gal(b1-3)GalNAc(b1-3)Gal(a1-4)Gal(b1-4)Glc
# Method in brief: as §1
# [25] = target: Fuc(a1-2)[Gal(a1-3)]Gal(b1-3)GlcNAc
# Method in brief: as §1
# [26] = target: Fuc(a1-2)[Gal(a1-3)]Gal(b1-3)GlcNAc(b1-2)Man(a1-3)[Fuc(a1-2)[Gal(a1-3)]Gal(b1-3)GlcNAc(b1-2)Man(a1-6)]Man(b1-4)GlcNAc(b1-4)GlcNAc
# Method in brief: as §1
# [27] = target: Fuc(a1-2)[Gal(a1-3)]Gal(b1-3)GlcNAc(b1-2)Man(a1-3)[Fuc(a1-2)[Gal(a1-3)]Gal(b1-3)GlcNAc(b1-2)Man(a1-6)]Man(b1-4)GlcNAc(b1-4)[Fuc(a1-6)]GlcNAc
# Method in brief: as §1
binder,measurement,setting,value
"UEA-I (Ulex europaeus), P22972 (protein) SDDLSFKFKNFSQNGKDLSFQGDASVIETGVLQLNKVGNNLPDETGGIARYIAPIHIWNCNTGEVASFITSFSFFMETSANPKAATDGLTFFLAPPDSPLRRAGGYFGLFEDTKDNDSSYQTVAVEFDTIGSPVNFDDPGFPHIGIDVNRVKSINAERWNKRYGLNNVANVEIIYEASSKTLTASLTYPSDQTSISVTSIVDLKEILPEWVSVGFSGGTYIGRQATHEVLNWYFTSNLINTNS",glycan array binding signal (z-score),[1],1.57
same,glycan array binding signal (z-score),[2],2.76
same,glycan array binding signal (z-score),[3],1.8
same,glycan array binding signal (z-score),[4],-0.149
same,glycan array binding signal (z-score),[5],5.44
same,glycan array binding signal (z-score),[6],-0.138
same,glycan array binding signal (z-score),[7],4.28
same,glycan array binding signal (z-score),[8],5.67
same,glycan array binding signal (z-score),[9],-0.611
same,glycan array binding signal (z-score),[10],-0.666
same,glycan array binding signal (z-score),[11],3.48
same,glycan array binding signal (z-score),[12],-0.035
same,glycan array binding signal (z-score),[13],-0.118
same,glycan array binding signal (z-score),[14],-0.025
same,glycan array binding signal (z-score),[15],-0.047
same,glycan array binding signal (z-score),[16],0.072
same,glycan array binding signal (z-score),[17],-0.226
same,glycan array binding signal (z-score),[18],3.27
same,glycan array binding signal (z-score),[19],-0.194
same,glycan array binding signal (z-score),[20],-0.191
same,glycan array binding signal (z-score),Fuc(a1-2)Gal6S(b1-4)Glc,4.67
same,glycan array binding signal (z-score),[21],5.33
same,glycan array binding signal (z-score),[22],2.5
same,glycan array binding signal (z-score),Fuc(a1-2)GlcNAc,1.81
same,glycan array binding signal (z-score),Fuc(a1-2)[Gal(a1-3)]Gal,-0.199
same,glycan array binding signal (z-score),[23],-0.174
same,glycan array binding signal (z-score),[24],-0.2
same,glycan array binding signal (z-score),[25],-0.149
same,glycan array binding signal (z-score),[26],-0.173
same,glycan array binding signal (z-score),[27],-0.167

# Reference: the supplement of paper PMC8728848
